Among all 310,000 compounds or so, about 14,000 (4.5%) showed an effect of 50% or more. The effect is printed as a negative number. Some of the results follow.
Target: human ether-à-go-go-related gene (hERG) potassium channel (human, UniProt Q12809)
Assay: primary screen, population patch clamp on CHO cells stably expressing hERG
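Further: peak tail current of the secondary pulse compared with the same well before compound.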

human ether-à-go-go-related gene (hERG) potassium channel, sequence (Q12809 whole entry, looked up): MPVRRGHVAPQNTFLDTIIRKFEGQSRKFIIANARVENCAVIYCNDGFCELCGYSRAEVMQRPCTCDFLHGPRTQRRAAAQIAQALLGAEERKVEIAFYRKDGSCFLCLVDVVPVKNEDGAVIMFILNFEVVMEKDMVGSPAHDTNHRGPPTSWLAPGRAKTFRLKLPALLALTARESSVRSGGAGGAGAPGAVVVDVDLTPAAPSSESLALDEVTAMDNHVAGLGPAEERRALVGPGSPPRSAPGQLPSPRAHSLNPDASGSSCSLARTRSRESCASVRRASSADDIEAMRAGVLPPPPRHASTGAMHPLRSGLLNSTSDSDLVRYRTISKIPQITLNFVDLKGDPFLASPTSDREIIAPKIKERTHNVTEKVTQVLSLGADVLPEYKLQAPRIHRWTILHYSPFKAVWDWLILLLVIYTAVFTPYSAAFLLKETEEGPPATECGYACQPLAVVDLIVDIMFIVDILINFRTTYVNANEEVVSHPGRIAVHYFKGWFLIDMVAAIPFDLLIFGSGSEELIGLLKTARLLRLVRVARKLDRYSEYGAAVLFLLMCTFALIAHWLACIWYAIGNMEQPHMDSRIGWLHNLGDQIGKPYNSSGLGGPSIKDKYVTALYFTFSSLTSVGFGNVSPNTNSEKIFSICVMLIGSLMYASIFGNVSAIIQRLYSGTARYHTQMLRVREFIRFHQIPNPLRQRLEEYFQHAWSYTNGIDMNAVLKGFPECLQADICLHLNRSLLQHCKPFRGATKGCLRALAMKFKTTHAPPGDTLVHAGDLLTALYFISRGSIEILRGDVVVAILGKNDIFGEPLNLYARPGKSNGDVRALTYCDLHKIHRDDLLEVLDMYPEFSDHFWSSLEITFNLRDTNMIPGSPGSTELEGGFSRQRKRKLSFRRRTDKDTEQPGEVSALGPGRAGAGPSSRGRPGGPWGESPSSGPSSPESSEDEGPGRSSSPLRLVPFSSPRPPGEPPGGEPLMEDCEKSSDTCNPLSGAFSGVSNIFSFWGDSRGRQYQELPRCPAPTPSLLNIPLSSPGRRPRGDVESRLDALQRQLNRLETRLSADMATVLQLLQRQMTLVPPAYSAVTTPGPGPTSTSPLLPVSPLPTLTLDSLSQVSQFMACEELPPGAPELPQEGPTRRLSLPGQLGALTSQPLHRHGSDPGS

Compound | hERG current change (%, negative = inhibition) at 10uM
CCCn1c(N)c(C(=O)CSc2nnc3n2CCCCC3)c(=O)[nH]c1=O | -5.1%
CCCCC(=O)NCCc1ccc(S(N)(=O)=O)cc1 | 9.01%
C(=N\N1CCN(c2ccccn2)CC1)/c1ccccn1 | 13.5%
Cc1nn(-c2ccc(C(=O)O)cc2)c(C)c1Cl | 10.8%
Cc1ccc(S(=O)(=O)N2CCC(C(=O)N3CCC[C@H]3C(=O)NCc3ccccc3)CC2)cc1 | -10.7%
COc1ccc2c(c1)[C@H]1[C@H](CO2)[C@H](c2ccccc2)[C@]2(C)C(=O)N(CC3CCCO3)CC(=O)N12 (some centres unmarked) | -2.94%
Cc1ccccc1NC(=S)N1CCN(Cc2ccc3c(c2)OCO3)CC1 | -10.3%
Cc1ccc(C(=O)NCCCNc2ccccc2[N+](=O)[O-])cc1 | -48.3%
CCOC(=O)C1=C(C)Nc2ccccc2N=C1NC(=O)Cc1ccc(Br)cc1 | 9.19%
Cl.NCCc1nnc(SCC(N)=O)o1 | 8.58%
COC(=O)c1cn(NC(=O)CC2CCCCC2)c(=O)c2ccccc12 | -10.6%
COCCn1c(=O)[nH]c2cc(C(=O)N3CCN(c4ccc(Cl)cc4)CC3)ccc2c1=O | 10.5%
CN1C(=O)/C(=C2\SC(N3CCCCCC3)=NC2=O)c2ccccc21 | -25.1%
Cc1cc(C)c(NC(=O)CSCc2nc3sc(C)c(C)c3c(=O)[nH]2)c(Cl)c1 | -5.07%
Cn1ncc2c(NNC(=O)c3ccc(O)cc3)ncnc21 | 18.7%
CC(C)C(OC(=O)c1cc2c(s1)CCCCC2)C(=O)NC(N)=O (centres unmarked) | 0.693%
CCc1c(C)sc(NC(=O)CC#N)c1C#N | 11.8%
COc1cc(/C=C2/C(=N)N3C(SC)=NSC3=NC2=O)ccc1OC(=O)c1ccco1 | 14.1%
COc1ccc(N2C(=O)CC(Sc3ccccc3C(=O)O)C2=O)c([N+](=O)[O-])c1 (centres unmarked) | 22.3%
Cc1ccc(Cn2ccc(NC(=O)c3nn(C)cc3[N+](=O)[O-])n2)cc1 | 4.67%
CC1CCCN(c2nc(-c3cccnc3)nc3scc(-c4ccccc4)c23)C1 (centres unmarked) | 11.6%
CCCn1cc(SCC(=O)Nc2nnc(C)s2)c2ccccc21 | 13.8%
CC(=O)NC12CC3CC(C1)CC(C(=O)Nc1nc4ccc(S(C)(=O)=O)cc4s1)(C3)C2 | -1.14%

Compound | hERG current change (%, negative = inhibition) at 10uM
O=C(O)[C@H]1CCCC[C@H]1C(=O)NCCNC(=O)[C@@H]1CCCC[C@@H]1C(=O)O | 11.6%
Cc1ccc(S[C@@H](CCN2CC[C@H](O)CCC2=O)c2ccccc2)cc1 | -12.7%
CCN(CCO)c1ncnc2c1sc1nc(CC(C)C)c3c(c12)CC(C)(C)OC3 | 19.5%
CCOC(=O)C1CCN(C(=O)COc2ccc(Br)cc2Br)CC1 | -51.8%
CCOC(=O)CNc1ccc(C(=O)OCC)cc1[N+](=O)[O-] | -0.367%
COc1ccccc1NC(=O)c1cnc2c(-c3ccccc3)c(C)nn2c1C | 3.15%
O=C(O)COc1ccc2nsnc2c1Cl | 4.45%
COc1ccc(OC)c(S(=O)(=O)N(C)CC(=O)N2CCOCC2)c1 | 11.3%
Cc1nn(-c2ccc(F)cc2)c(Cl)c1/C=C(\CCC(=O)O)c1nc2ccccc2s1 | -5.36%
O=C1NC2c3ccccc3CC2O1 (centres unmarked) | 18.2%
COC(=O)c1ccccc1NC(=O)CSc1nncn1-c1cccnc1 | -11.7%
CN1CCNC(=O)C1CC(=O)O (centres unmarked) | -1.72%
Cn1c(=O)c2c(SCC(=O)N3CCCC3)nc(-c3ccccc3)nc2n(C)c1=O | 6.03%
O=S(=O)(c1cccc(F)c1)N1CCN(Cc2cc3c(cc2Br)OCCO3)CC1 | 12.6%
CC(CCc1ccccc1)NC(=O)CN(C)Cc1ccc(F)cc1 (centres unmarked) | -23.6%
CCCCC(=O)N(CCOC)c1nnc(-c2ccc(OC)cc2)s1 | 7.51%
O=C(NCc1ccccc1)C(=O)NCC1OCCN1S(=O)(=O)c1ccc(Br)cc1 (centres unmarked) | -13.3%
O=C(NC1CCS(=O)(=O)C1)C1CCCCN1S(=O)(=O)c1ccc(Cl)cc1 (centres unmarked) | -6.74%
Cc1c(C(=O)OCC(=O)N2CC(C)CC(C)C2)oc2ccccc12 (centres unmarked) | -13.7%
COc1ccc(N2CCN(c3oc(Cc4cccc5ccccc45)nc3C#N)CC2)cc1 | -6.4%
O=c1c2cc(N3CCOCC3)ccc2[nH]c(=S)n1Cc1cccc(Cl)c1 | 1.02%
Nc1ccc(O)c(C(=O)O)c1 | -7.83%
COc1ccc(S(=O)(=O)NC2CC(=O)N(c3ccc(C)c(C)c3)C2)cc1 (centres unmarked) | 8.13%

Compound | hERG current change (%, negative = inhibition) at 10uM
CCOCCn1c(CN2CCN(C(=O)c3ccco3)CC2)nc2c1c(=O)n(C)c(=O)n2C | -3.37%
C=CCc1c(C)nc(-c2ccccc2)nc1N/N=C/c1ccccc1 | -32.5%
CCn1c(COc2ccc(C)cc2)nnc1SCC(=O)NNC(=O)c1ccc(OC)cc1 | 4.97%
Fc1ccc(NC(=S)Nc2ccc(Cl)cc2)cc1 | 10.1%
Cc1ccc(C(=O)Nn2cnnc2)cc1[N+](=O)[O-] | -7.48%
C[C@]12N[C@H](Cc3ccccc31)c1ccccc12.O=C(O)/C=C\C(=O)O | -3.29%
COc1ccc(OC)c(NS(=O)(=O)c2ccc(NC(=O)c3ccc(NS(C)(=O)=O)cc3)cc2)c1 | 14.2%
CC1(C)Cc2c(c(-c3ccco3)nc3sc4c(NCCCO)ncnc4c23)CO1 | 5.78%
NS(=O)(=O)c1cc(C(=O)OC2CCOC2=O)ccc1Cl (centres unmarked) | 12.7%
CCOc1ccc(NC(=O)c2ccc(CN3CCc4ccccc4C3)cc2)cc1 | 0.805%
Cc1ccc(N2CCN(Cc3ccccc3)CC2=O)c(C)c1.O=C(O)C(=O)O | -4.36%
O=C(COc1ccccc1Cl)Nc1ccc(NC(=O)c2ccco2)cc1 | -42.6%
O=C(N/N=C/C(Br)=C/c1ccccc1)C1CC1 | 32.2%
CC(=O)Nc1cc2c(=O)n(Cc3ccccc3)c(C)nc2cc1N1CCOCC1 | 1.32%
OC(CC#CCN1CCCC1)(c1ccccc1)c1ccccc1 | -13.5%
CCOC(=O)C(=O)/C(C#N)=C/Nc1ccc(F)cc1 | 15.6%
Cc1cccc(C(=O)N/C(=C/c2ccco2)C(=O)N2CCCCCC2)c1 | 8.38%
CN(C)C1=C(C#N)C(c2ccccc2)=NP(N(C)C)(N(C)C)=N1 | -0.483%
COc1ccc(NC(=O)CSc2ncn(-c3ccccc3)n2)cc1Cl | -4.21%
CC1CCCC(C)N1C(=O)c1ccc(CS(=O)(=O)c2ccccc2)cc1 (centres unmarked) | -2.22%
O=C1c2ccc(Oc3ccc([N+](=O)[O-])cc3)cc2C(=O)N1CCCO | -60.8%
CCOC(=O)C(Sc1nn(C)c(=S)s1)C(C)=O (centres unmarked) | 4.21%
COCCC(=O)NNS(=O)(=O)c1ccc(Cl)cc1 | 15.2%

Compound | hERG current change (%, negative = inhibition) at 10uM
CCOCCCN(C(=O)Cn1nnc(-c2ccc(C)o2)n1)C(C(=O)NC1CCCC1)c1ccco1 (centres unmarked) | -6.98%
O=S1CC/C(=N\O)c2ccccc21 (centres unmarked) | 12.8%
COc1cc(OC)c2ccc(=O)oc2c1C(CCN1CCCC1)c1ccc2c(c1)OCO2 (centres unmarked) | -56.7%
COC(=O)Cn1cc(C=C2C(=O)N(C)C(=O)N(C)C2=O)c2ccccc21 | 19.2%
CCN(CC)C(=O)CSc1nc2c(sc(=S)n2CC)c(=O)n1-c1ccccc1 | -66.9%
O=C(N/N=C/c1cccc2ccccc12)c1cccs1 | 20.7%
CC(=O)Nc1sc(N/N=C\c2ccccc2Cl)nc1-c1cccs1 | 12%
CC(C)NC(=S)NCc1cccs1 | 4.01%
CCCCOC(=O)C1=C(N)OC2=C(C(=O)CC(C)(C)C2)[C@]12C(=O)N(C)c1ccccc12 | 20.8%
COc1ccc2c(c1OC)C(=O)N(c1ccc(C)cc1)C2 | 13.2%
Cc1ccsc1C(=O)OCC(=O)NCc1ccc(Cl)cc1 | 13.9%
COc1c(C)cc(C(=O)C2CCCN(S(=O)(=O)c3c(C)noc3C)C2)cc1C (centres unmarked) | -2.78%
Cc1ccccc1NC(=O)C(C#N)Cc1cccnc1 (centres unmarked) | -4.9%
Cc1ccc(NC(=O)c2snnc2C)cc1Cl | -9.81%
C/C(=N/NC(=O)COc1cc(C)ccc1C(C)C)C(=O)O | 8.79%
O=C(CCCn1cncn1)N1CCCC(N2CCN(c3ccc(F)cc3)CC2)C1 (centres unmarked) | -25.2%
CC1(C)CC(=O)C2=C(C1)NC(=O)NC2c1ccccc1 (centres unmarked) | 21.7%
O=C(O)C1CCCCC1C(=O)Nc1nc(-c2cccs2)cs1 (centres unmarked) | 4.27%
CCc1nc(C)cn1S(=O)(=O)c1cc(Br)ccc1OC | 2.61%
Cc1ccc(S(=O)(=O)c2cccc(S(=O)(=O)N3CCCC3)c2)cc1S(=O)(=O)N1CCCC1 | -29.5%
